Like-named read-outs stand apart in the source and are kept apart here. Where no end group is shown, it is not given here.
Tested on: human peripheral blood lymphocytes
From the text: The E-rosette bioassay performed in this invention is based on the observations that the addition of optimally active thymosin preparation can increase in patients with thymus hypoplasia the percent and absolute number of peripheral blood T cells forming rosette with sheep red blood cells (Wara et al., N. Engl. J Med. 292:70, 1975), and that thymic extracts can restore the erythrocyte rosette-forming capacity of alpha-amanitin-treated lymphocytes (Sattar et al., Immunol. Lett. 27:221, 1991). In fact, the percentage of E-rosette forming cells in peripheral human blood can be a measure of the content of fully mature T-cells. In a healthy adult the normal level of E-rosettes is about 56%. For the performance of the E-rosette assay, a RNA polymerase inhibitor, alpha-amanitin, was used. […] A rosette was defined as a lymphocyte that bound three or more sheep erythrocytes. Rosettes enumerated under a microscope by counting 200 lymphocytes. The results were expressed as percent lymphocytes forming rosettes. The value of the normal level of E-rosette in the healthy adult is taken as 100% in a relative numerical scale, and after the alpha-amanitin blockage it is taken as 0%. Each data point was done in duplicate.

Row | Molecule | E-rosette number (%) (0.19 µg/0.5 ml culture, relative scale) | E-rosette number (%) (0.38 µg/0.5 ml culture, relative scale) | E-rosette number (%) (0.75 µg/0.5 ml culture, relative scale) | E-rosette number (%) (1.5 µg/0.5 ml culture, relative scale) | E-rosette number (%) (3.0 µg/0.5 ml culture, relative scale) | E-rosette number (%) (6.0 µg/0.5 ml culture, healthy adult level = 100%, after alpha-amanitin blockage = 0%) | E-rosette number (%) (0.156 µg/0.5 ml culture, relative scale) | E-rosette number (%) (0.31 µg/0.5 ml culture, relative scale) | E-rosette number (%) (0.63 µg/0.5 ml culture, relative scale) | E-rosette number (%) (1.25 µg/0.5 ml culture, relative scale) | E-rosette number (%) (2.5 µg/0.5 ml culture, relative scale) | E-rosette number (%) (5.0 µg/0.5 ml culture, relative scale)
1 | thymosin alpha 1 (SDAAVDTSSEITTKDLKEKKEVVEEAEN; ends and bridges not checked; UniProt P06454 2-29, looked up) [Synthetic TM-alpha1, 28 amino acid acidic thymic peptide; synthetic form used as comparator in the E-rosette assay] | 34% | 57% | 100% | 62% | 52% | 30% | – | – | – | – | – | –
2 | IFN-beta/TM-alpha1: fusion protein: human IFN-beta (amino acids 1-166) linked to human TM-alpha1 (172-199) via a linker (167-171), SEQ ID NO:11, expressed in E. coli (protein, Human) MSYNLLGFLQRSSNFQCQKLLWQLNGRLEYCLKDRMNFDIPEEIKQLQQFQKEDAALTIYEMLQNIFAIFRQDSSSTGWNETIVENLLANVYHQINHLKTVLEEKLEKEDFTRGKLMSSLHLKRYYGRILHYLKAKEYSHCAWTIVRVEILRNFYFINRLTGYLRNSGGGGSDAAVDTSSEITTKDLKEKKEVVEEAEN | – | – | – | – | – | – | 21% | 51% | 91% | 57% | 43% | 19%

Reference: patent publication US20030017550A1 (priority 2001, published 2003)
